The other results are listed elsewhere or left out.
target: T1, OsWOX13 (Oryza sativa, UniProt Q5QMM3 1-267); assay: protein-binding microarray (RPBM); PBS, 2% BSA, 51.3 ng/ul salmon testes DNA, 50 uM zinc acetate, 200 nM TF, 25 C, 1 h; high values mean tight binding; settings: protein: recombinant; tags: N-terminal polyhistidine and DsRed monomer fusion (pET32a); label: CyDye5-dUTP incorporated in the synthesized complementary strand; 3' TTTTT single-stranded linker to array surface; dsDNA, one strand shown
T1 sequence: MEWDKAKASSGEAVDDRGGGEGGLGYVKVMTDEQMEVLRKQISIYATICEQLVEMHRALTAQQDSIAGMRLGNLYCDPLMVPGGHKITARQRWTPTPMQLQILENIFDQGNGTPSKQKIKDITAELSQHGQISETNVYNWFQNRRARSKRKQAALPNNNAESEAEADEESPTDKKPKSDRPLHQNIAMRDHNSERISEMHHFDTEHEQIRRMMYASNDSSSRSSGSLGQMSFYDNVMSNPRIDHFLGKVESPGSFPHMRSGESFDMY
How it was run: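 The binding signal is fluorescence intensity per array feature (arbitrary units). Readings came from an Axon 4000B scanner after a washed, 2% BSA-blocked, double-stranded custom Agilent array had been incubated for 1 h at 25 °C with 200 nM protein and 50 µM zinc acetate. The protein was a Ni–NTA-purified transcription factor fused N-terminally to polyhistidine and DsRed, expressed in E. coli BL21-CodonPlus.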

Point of comparison: “CTTAATTAACACTCGTAAGATTGACAAATAGTTGAATATCCGGAGTCACCTAGTGCAG”, binding signal 60300 fluorescence intensity (a.u.). Against it:
- TTTAATCATTGACCGAATTAAACTGACTAGGAGTGAAATCCGGAGTCACCTAGTGCAG — lower, 19700 fluorescence intensity (a.u.)
- GTTATCCATCTATTGCAATCATCAGAAACAATAGCCTCAGCGGAGTCACCTAGTGCAG — lower, 5990 fluorescence intensity (a.u.)
- ACAGAGAGAGGTAGGTGATTGATAATAAGAAAGAAGGGAACGGAGTCACCTAGTGCAG — lower, 13000 fluorescence intensity (a.u.)
- TTCAAAAGGTGTTGTGTATGAGCTATTGTGGGCTTGTGGCCGGAGTCACCTAGTGCAG — lower, 9470 fluorescence intensity (a.u.)
- ACCGAGTGACATGACTGATAAACATATCTATATCTACTTACGGAGTCACCTAGTGCAG — lower, 6910 fluorescence intensity (a.u.)
- CACGATTATAATCAACTTACACAATCCATAATGCCCCATCCGGAGTCACCTAGTGCAG — lower, 17400 fluorescence intensity (a.u.)
- GTCCACTAATTACTAAATTGCCGACTGCTAAAACAAAATGCGGAGTCACCTAGTGCAG — lower, 34300 fluorescence intensity (a.u.)
- GTTTATTGTACTGGATTAGTTTGTTTATTTTAAAACGAAGCGGAGTCACCTAGTGCAG — lower, 3230 fluorescence intensity (a.u.)
- TTACAACAAGATGTTACATGATTATATTCTGATTATGGGGCGGAGTCACCTAGTGCAG — lower, 5080 fluorescence intensity (a.u.)
- AATTTTATCATACTAATTAAATAATTACTTTTGCATGAACCGGAGTCACCTAGTGCAG — lower, 11000 fluorescence intensity (a.u.)
- AATCGTAATCAAAACCATCAGTTTAACTGCAGCTCCAGCACGGAGTCACCTAGTGCAG — lower, 4200 fluorescence intensity (a.u.)
- CCAATGATTTGGCTTTAATCCAAATATACACTATCAATATCGGAGTCACCTAGTGCAG — lower, 16000 fluorescence intensity (a.u.)
- TAATGTGATTTGTGTCCTTTCCTGTTTCACGAGAAGAAAACGGAGTCACCTAGTGCAG — lower, 10200 fluorescence intensity (a.u.)
- ATCAATCACAATCCACAAATTAATCACAAAATCATCCCTACGGAGTCACCTAGTGCAG — lower, 14600 fluorescence intensity (a.u.)
- GAATCTTATTGTACTGTGTCTGGGCCATATATGCAGCCCGCGGAGTCACCTAGTGCAG — lower, 4030 fluorescence intensity (a.u.)
- CTTCTCCTTTTCGATCAATCAGTCTCTTTCTCTTTGTCATCGGAGTCACCTAGTGCAG — lower, 5190 fluorescence intensity (a.u.)
- ATACTCTAGATAATAATTGCTAGTGGATGATGATGTGGCACGGAGTCACCTAGTGCAG — lower, 4420 fluorescence intensity (a.u.)
- CGCCGGAATGATTGTTGCAGCGCAGCAACACAGGCTAGCACGGAGTCACCTAGTGCAG — lower, 9030 fluorescence intensity (a.u.)
- TGATCTCGTCTCACCAGTTAATTAACTTTAGTGTAATACTCGGAGTCACCTAGTGCAG — lower, 6880 fluorescence intensity (a.u.)
- ATCGTCATGATAGACTGGCTAGACGAGCTACTCTCGTTCTCGGAGTCACCTAGTGCAG — lower, 22700 fluorescence intensity (a.u.)
- CGTGATTAGCGAGTTGCCATGGATGAGCCAGCAAGACGTGCGGAGTCACCTAGTGCAG — lower, 36200 fluorescence intensity (a.u.)
- CCATGATTGTTCATACCAATAATGGGCGCAAATGGAAGACCGGAGTCACCTAGTGCAG — lower, 41400 fluorescence intensity (a.u.)
- GCTAATTGGGCGATGACGGTGTCCTTGCTGGGCTGGGCCCCGGAGTCACCTAGTGCAG — lower, 48800 fluorescence intensity (a.u.)
- TTATTGTATACATTGATTTTCAATTAACTTTCAAACTTGACGGAGTCACCTAGTGCAG — lower, 10300 fluorescence intensity (a.u.)
- TAATTAATGATCGATGATCTGACTCTACGCTTCGTTTACTCGGAGTCACCTAGTGCAG — lower, 6970 fluorescence intensity (a.u.)
- AAAAGAAACTGATAACTGTCACAACATCCTAACCAACCCACGGAGTCACCTAGTGCAG — lower, 3260 fluorescence intensity (a.u.)
- AGTATATAATAGATAGATAGATAGATAGATAGCCTAGTTGCGGAGTCACCTAGTGCAG — lower, 26000 fluorescence intensity (a.u.)
- ATTGTTACATGTAATCAAGGGGTGATGGGCATATTCACAGCGGAGTCACCTAGTGCAG — lower, 7040 fluorescence intensity (a.u.)
- AGGTGATTATTACTCCCTCCGTTTCAAAATGTTTGACACCCGGAGTCACCTAGTGCAG — lower, 26700 fluorescence intensity (a.u.)
- ACGATGGTAAATTATAACGTAAAATATTAGCCACTGAGTGCGGAGTCACCTAGTGCAG — lower, 5240 fluorescence intensity (a.u.)
- AAAATAGACTTATTTTCACTATATATATGTCACCAGCCCACGGAGTCACCTAGTGCAG — lower, 4200 fluorescence intensity (a.u.)
- TGATTGATTATTCCGTAATCTGTAGCTAATCAGATCGGATCGGAGTCACCTAGTGCAG — lower, 39800 fluorescence intensity (a.u.)
- AAATCCCACTAATTTGTATATATTTTACCGCGAAGAGATTCGGAGTCACCTAGTGCAG — lower, 7870 fluorescence intensity (a.u.)
- TATAATTTCACATCACATATTACTCCATCTGTCCGAAAATCGGAGTCACCTAGTGCAG — lower, 3230 fluorescence intensity (a.u.)
- GCTTCAATCTATTAATATTGTTAAGAGAGGGTGAAAAGGACGGAGTCACCTAGTGCAG — lower, 13300 fluorescence intensity (a.u.)
- CTTTGTGATTAATTAATGTGCAACATAGTTTGGTTAATTCCGGAGTCACCTAGTGCAG — lower, 17400 fluorescence intensity (a.u.)
- TAAATTGATGGGACTGGGCCTAGCTAACTGACTAGGCCTACGGAGTCACCTAGTGCAG — lower, 41800 fluorescence intensity (a.u.)
- GTTCTTGATGGAATTGCTGTTCATTATTCAGATTTCAGAACGGAGTCACCTAGTGCAG — lower, 9940 fluorescence intensity (a.u.)
- AAACTAATTTTACAAATAATTCGTCACCAAAACTTATTTACGGAGTCACCTAGTGCAG — lower, 7530 fluorescence intensity (a.u.)
- TTCACCAATCACCACAAGCTCCCCACTAAACCCGGGAGCTCGGAGTCACCTAGTGCAG — lower, 19900 fluorescence intensity (a.u.)
- CTAAACAGAAGGCACTGGTCAGTGTTTTGTTTTCTGAAGTCGGAGTCACCTAGTGCAG — lower, 5050 fluorescence intensity (a.u.)

Source: PMC7819943, “Rice protein-binding microarrays: a tool to detect cis-acting elements near promoter regions in rice”
